In the supplement of paper PMC9446081 one finds relative growth data, which are given here for 16 compounds.

The whole screen tested about 39,000 compounds, of which about 220 (0.56%) showed activity. Some of the results follow.
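Note: static incubation at 37 °C against the wild-type strain, values averaged over two biological replicates.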

In the test the test system is Escherichia coli K-12 BW25113. Description: relative growth (OD600 normalised to plate interquartile mean) (fraction); higher = less growth inhibition, active = 0.2 or less. To be noted: 50 µM; LB; incubation time: overnight (16-24 h).
With `C[C@H]1CN([C@@H](C)CO)C(=O)c2cc(NC(=O)c3ccncc3)ccc2O[C@@H]1CN(C)C(=O)Nc1ccc2c(c1)OCO2`, the relative growth is inactive: 0.977. Regarding `C[C@@H]1CCCCO[C@@H](CN(C)Cc2ccccc2)[C@H](C)CN([C@H](C)CO)C(=O)c2cc(NC(=O)NC3CCCCC3)ccc2O1`, the relative growth was inactive: 0.971. On to `Cc1cc(O)c(C=O)c2c1C(=O)Oc1c(C)c(O)c3c(c1O2)C(O)OC3=O` (stereo unspecified), for which the relative growth was inactive: 0.948.

Regarding `COc1ccc2c(c1)[C@]1(C[C@H]1c1ccc3c(/C=C/c4ccc(CN5C[C@@H](C)O[C@@H](C)C5)cc4)[nH]nc3c1)C(=O)N2`, the relative growth was inactive: 1.04.

Consider `Cc1ccc(S(=O)(=O)Nc2ccc3c(c2)C(=O)N([C@@H](C)CO)C[C@H](C)[C@@H](CN(C)C(=O)Nc2cccc4ccccc24)OCCCC[C@@H](C)O3)cc1`, for which the relative growth is inactive: 0.987. Regarding `C[C@@H]1CCCCO[C@@H](CN(C)Cc2ccc(C(F)(F)F)cc2)[C@@H](C)CN([C@H](C)CO)C(=O)c2cc(NC(=O)CCCCCC(=O)Nc3ccccc3N)ccc2O1`, the relative growth is inactive: 1.05. In the case of `CCCN1C(=O)[C@@]2(c3ccc([N+](=O)[O-])cc3)CC(=O)N(CC34CC5CC(CC(C5)C3)C4)[C@@H]2c2ccc(CO)cc21`, the relative growth is inactive: 0.998. On to `CNC[C@H]1Oc2c(NS(=O)(=O)c3cn(C)cn3)cccc2C(=O)N([C@H](C)CO)C[C@H]1C`, for which the relative growth is inactive: 1.01. For `O=C(Cc1ccc2c(c1)OCO2)N[C@@H]1CCNC[C@H]1O`, the relative growth is inactive: 0.987. Regarding `COCC(=O)N(C)C[C@H]1Oc2cc(-c3ccc(C#N)cc3)ccc2S(=O)(=O)N([C@H](C)CO)C[C@@H]1C`, the relative growth was inactive: 1.01.

For `COc1ccc2c3c(n(c2c1)C)[C@H](CO)N(Cc1ccccc1F)C[C@]13CN(C1)C(=O)C1CCOCC1`, the relative growth was inactive: 1.03. As for `C[C@@H]1CN([C@H](C)CO)C(=O)c2cc(NC(=O)Nc3ccc4c(c3)OCO4)ccc2O[C@@H](C)CCCCO[C@H]1CN(C)C(=O)c1ccccc1`, the relative growth is inactive: 1.01. With `Cc1ccc(S(=O)(=O)N(C)C[C@H]2OCCCC[C@@H](C)Oc3ccc(NC(=O)Cc4ccccc4)cc3C(=O)N([C@@H](C)CO)C[C@@H]2C)cc1`, the relative growth is inactive: 0.997.

With `C[C@H]1CN([C@@H](C)CO)C(=O)Cc2cc(NC(=O)Cc3ccccc3)ccc2O[C@H]1CN(C)S(=O)(=O)c1ccc(F)cc1`, the relative growth was inactive: 1.01. Take `O=C(CCCCCCC(=O)Nc1ccc([C@H]2O[C@@H](CN3CCCCCCC3)C[C@H](c3ccccc3)O2)cc1)NO`: the relative growth was inactive: 1.02. Regarding `CO[C@H](CN(C)S(=O)(=O)c1ccc(C)cc1)[C@@H](C)CN([C@@H](C)CO)S(=O)(=O)c1cccc(Cl)c1`, the relative growth was inactive: 1.02.
